# Assay results published in the supplement of paper PMC8728848.
# Some of the results follow.
# B1: Eosinophil cationic protein (ECP) (Homo sapiens), P12724 (protein)
# chain: MVPKLFTSQICLLLLLGLMGVEGSLHARPPQFTRAQWFAIQHISLNPPRCTIAMRAINNYRWRCKNQNTFLRTTFANVVNVCGNQSIRCPHNRTLNNCHRSRFRVPLLHCDLINPGAQNISNCTYADRPGRRFYVVACDNRDPRDSPRYPVVPVHLDTTI
# Experiments:
# Test in all cases: glycan array binding signal (z-score within array); higher = stronger binding
# Conditions in all cases: glycan notation: IUPAC condensed, linker removed
# Fuc(a1-2)Gal = target: Fuc(a1-2)Gal
# Method in brief: (§1)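 Columns mapping to the same glycan were averaged after glycan names were converted to IUPAC-condensed notation. The data come from 3228 arrays in the Consortium for Functional Glycomics database, limited to those with an available protein sequence. Binding is reported as a within-array Z-score averaged across arrays of one protein sequence and across linkers.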
# Fuc(a1-2)Gal(b1-3)GalNAc = target: Fuc(a1-2)Gal(b1-3)GalNAc
# Method in brief: as §1
# [1] = target: Fuc(a1-2)Gal(b1-3)GalNAc(a1-3)[Fuc(a1-2)]Gal(b1-4)Glc
# Method in brief: as §1
# [2] = target: Fuc(a1-2)Gal(b1-3)GalNAc(a1-3)[Fuc(a1-2)]Gal(b1-4)GlcNAc
# Method in brief: as §1
# [3] = target: Fuc(a1-2)Gal(b1-3)GalNAc(b1-3)Gal
# Method in brief: as §1
# [4] = target: Fuc(a1-2)Gal(b1-3)GalNAc(b1-3)Gal(a1-4)Gal(b1-4)Glc
# Method in brief: as §1
# [5] = target: Fuc(a1-2)Gal(b1-3)GalNAc(b1-4)[Neu5Ac(a2-3)]Gal(b1-4)Glc
# Method in brief: as §1
# Fuc(a1-2)Gal(b1-3)GlcNAc = target: Fuc(a1-2)Gal(b1-3)GlcNAc
# Method in brief: as §1
# [6] = target: Fuc(a1-2)Gal(b1-3)GlcNAc(b1-2)Man(a1-3)[Fuc(a1-2)Gal(b1-3)GlcNAc(b1-2)Man(a1-6)]Man(b1-4)GlcNAc(b1-4)GlcNAc
# Method in brief: as §1
# [7] = target: Fuc(a1-2)Gal(b1-3)GlcNAc(b1-2)Man(a1-3)[Fuc(a1-2)Gal(b1-3)GlcNAc(b1-2)Man(a1-6)]Man(b1-4)GlcNAc(b1-4)[Fuc(a1-6)]GlcNAc
# Method in brief: as §1
# [8] = target: Fuc(a1-2)Gal(b1-3)GlcNAc(b1-3)Gal(b1-4)Glc
# Method in brief: as §1
# [9] = target: Fuc(a1-2)Gal(b1-3)GlcNAc(b1-3)GalNAc
# Method in brief: as §1
# [10] = target: Fuc(a1-2)Gal(b1-3)GlcNAc(b1-3)[Fuc(a1-3)[Gal(b1-4)]GlcNAc(b1-6)]Gal(b1-4)Glc
# Method in brief: as §1
# [11] = target: Fuc(a1-2)Gal(b1-3)GlcNAc(b1-3)[Gal(b1-4)GlcNAc(b1-6)]Gal(b1-4)Glc
# Method in brief: as §1
# [12] = target: Fuc(a1-2)Gal(b1-3)GlcNAc(b1-3)[Neu5Ac(a2-6)Gal(b1-4)GlcNAc(b1-6)]Gal(b1-4)Glc
# Method in brief: as §1
# [13] = target: Fuc(a1-2)Gal(b1-3)[Fuc(a1-4)]GlcNAc
# Method in brief: as §1
# [14] = target: Fuc(a1-2)Gal(b1-3)[Fuc(a1-4)]GlcNAc(b1-2)Man(a1-3)[Fuc(a1-2)Gal(b1-3)[Fuc(a1-4)]GlcNAc(b1-2)Man(a1-6)]Man(b1-4)GlcNAc(b1-4)GlcNAc
# Method in brief: as §1
# [15] = target: Fuc(a1-2)Gal(b1-3)[Fuc(a1-4)]GlcNAc(b1-3)[Fuc(a1-3)[Gal(b1-4)]GlcNAc(b1-6)]Gal(b1-4)Glc
# Method in brief: as §1
# [16] = target: Fuc(a1-2)Gal(b1-3)[Fuc(a1-4)]GlcNAc(b1-3)[Gal(b1-4)GlcNAc(b1-6)]Gal(b1-4)Glc
# Method in brief: as §1
# Fuc(a1-2)Gal(b1-4)Glc = target: Fuc(a1-2)Gal(b1-4)Glc
# Method in brief: as §1
# Fuc(a1-2)Gal(b1-4)Glc6S = target: Fuc(a1-2)Gal(b1-4)Glc6S
# Method in brief: as §1
# Fuc(a1-2)Gal(b1-4)GlcNAc = target: Fuc(a1-2)Gal(b1-4)GlcNAc
# Method in brief: as §1
# [17] = target: Fuc(a1-2)Gal(b1-4)GlcNAc(b1-2)Man(a1-3)[Fuc(a1-2)Gal(b1-4)GlcNAc(b1-2)Man(a1-6)]Man(b1-4)GlcNAc(b1-4)GlcNAc
# Method in brief: as §1
# [18] = target: Fuc(a1-2)Gal(b1-4)GlcNAc(b1-2)Man(a1-3)[Fuc(a1-2)Gal(b1-4)GlcNAc(b1-2)Man(a1-6)]Man(b1-4)GlcNAc(b1-4)[Fuc(a1-6)]GlcNAc
# Method in brief: as §1
# [19] = target: Fuc(a1-2)Gal(b1-4)GlcNAc(b1-2)[Fuc(a1-2)Gal(b1-4)GlcNAc(b1-4)]Man(a1-3)[Fuc(a1-2)Gal(b1-4)GlcNAc(b1-2)Man(a1-6)]Man(b1-4)GlcNAc(b1-4)GlcNAc
# Method in brief: as §1
# [20] = target: Fuc(a1-2)Gal(b1-4)GlcNAc(b1-3)Gal(b1-4)GlcNAc
# Method in brief: as §1
# [21] = target: Fuc(a1-2)Gal(b1-4)GlcNAc(b1-3)Gal(b1-4)GlcNAc(b1-3)Gal(b1-4)GlcNAc
# Method in brief: as §1
# [22] = target: Fuc(a1-2)Gal(b1-4)GlcNAc(b1-3)GalNAc
# Method in brief: as §1
# [23] = target: Fuc(a1-2)Gal(b1-4)GlcNAc(b1-3)[Fuc(a1-2)Gal(b1-4)GlcNAc(b1-6)]GalNAc
# Method in brief: as §1
# [24] = target: Fuc(a1-2)Gal(b1-4)GlcNAc6S
# Method in brief: as §1
binder,measurement,setting,value
B1,glycan array binding signal (z-score),Fuc(a1-2)Gal,-0.111
same,glycan array binding signal (z-score),Fuc(a1-2)Gal(b1-3)GalNAc,-0.336
same,glycan array binding signal (z-score),[1],0.025
same,glycan array binding signal (z-score),[2],-0.458
same,glycan array binding signal (z-score),[3],-0.243
same,glycan array binding signal (z-score),[4],-0.269
same,glycan array binding signal (z-score),[5],-0.163
same,glycan array binding signal (z-score),Fuc(a1-2)Gal(b1-3)GlcNAc,-0.304
same,glycan array binding signal (z-score),[6],0.294
same,glycan array binding signal (z-score),[7],0.213
same,glycan array binding signal (z-score),[8],0.107
same,glycan array binding signal (z-score),[9],-0.327
same,glycan array binding signal (z-score),[10],0.182
same,glycan array binding signal (z-score),[11],-0.602
same,glycan array binding signal (z-score),[12],-0.034
same,glycan array binding signal (z-score),[13],-0.021
same,glycan array binding signal (z-score),[14],0.469
same,glycan array binding signal (z-score),[15],-0.463
same,glycan array binding signal (z-score),[16],-0.315
same,glycan array binding signal (z-score),Fuc(a1-2)Gal(b1-4)Glc,-0.348
same,glycan array binding signal (z-score),Fuc(a1-2)Gal(b1-4)Glc6S,-0.362
same,glycan array binding signal (z-score),Fuc(a1-2)Gal(b1-4)GlcNAc,-0.312
same,glycan array binding signal (z-score),[17],-0.016
same,glycan array binding signal (z-score),[18],-0.652
same,glycan array binding signal (z-score),[19],-0.427
same,glycan array binding signal (z-score),[20],0.238
same,glycan array binding signal (z-score),[21],-0.175
same,glycan array binding signal (z-score),[22],-0.181
same,glycan array binding signal (z-score),[23],0.259
same,glycan array binding signal (z-score),[24],-0.281
